The results in this text go back to PubChem BioAssay AID1508623 (National Center for Advancing Translational Sciences (NCATS), 2021).

Out of some 48,000 compounds screened, about 450 (0.94%) were called active. Inconclusive results (about 19%) are left out. The call rests on the fitted dose curve; in most records, active means well fitted inhibition curve with a large enough effect; inconclusive means small, poorly fitted or top-dose-only effect; inactive means no such curve, though single readings can be large or run the other way. This is one part of the list.

A short description of the test: Primary qHTS for Identification of Small Molecule Inhibitors of Huntingtin Promoter Activity. Further: nearly all actives have a fitted effect of over 50% in size. The note with it: HEK293 HTT promoter firefly luciferase reporter (activity 0% = vehicle and -100% = no light), 24 h; series mostly up to 57.5 µM; activity change, negative = inhibition: at the top concentration. In short, it runs like this:
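HEK293 cells carrying firefly luciferase reporters were seeded at 2,500 per well in Opti-MEM and cultured for 24 h. They were then treated with compounds at up to 57.5 uM final for 24 h at 37 degrees C before Dual-Glo luminescence readout.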
In general terms: Quantitative high-throughput screening tests each substance at several concentrations.
For `CCCOc1cccc(C(=O)Nc2cc(-c3ccccc3)no2)c1`, the “activity change, negative = inhibition” value is inactive: 34.7%.

Turning to `CCC1Oc2ccc(Cl)cc2N(CC(=O)NCCc2ccc(Cl)cc2)C1=O` (configuration not stated), the “activity change, negative = inhibition” value is inactive: -16%.

Turning to `CCCN1Cc2cccc(C(=O)Nc3cccc(C(=O)OCC)c3)c2C1=O`, the “activity change, negative = inhibition” value was inactive: -8.96%.

In the case of `CCc1cccc(C)c1NC(=O)Cn1nc(C)c2nn(-c3ccc(Cl)cc3)c(C)c2c1=O`, the “activity change, negative = inhibition” value was inactive: -27.4%.

As to `COc1ccccc1C(=O)Nc1ccc2oc(-c3cccc4c(Br)cccc34)nc2c1`, the “activity change, negative = inhibition” value was inactive: -7.45%.

For the compound `O=C(Cc1csc2nc(-c3ccc(F)cc3)cn12)NCc1ccccc1`, the “activity change, negative = inhibition” value is inactive: 19.2%.

On to `O=[N+]([O-])c1cc(-c2nc(-c3ccccc3)no2)ccc1NC1CCCCC1`, for which the “activity change, negative = inhibition” value is inactive: -13.3%.

Regarding `C=Cc1ccc(Cn2c(C)c(CNCc3ccccc3C)c(C(=O)O)c2C)cc1`, the “activity change, negative = inhibition” value was inactive: -5.29%.

Take `COc1ccccc1CNC(=O)CCn1c(=O)c2cccn2c2cccnc21`: the “activity change, negative = inhibition” value was inactive: -0.396%.

As to `O=C(Nc1nnc(S(=O)(=O)N2CCCCC2)s1)c1ccccc1Br`, the “activity change, negative = inhibition” value is inactive: -17.7%.

Regarding `Cc1ccc(NC(=O)c2ccc3c(O)c(S(=O)(=O)c4ccccc4)c(=O)[nH]c3c2)cc1Cl`, the “activity change, negative = inhibition” value was inactive: -8.59%.

As for `Cc1ccc(-c2nnc(Nc3ccc(C(=O)N(C)C)cc3)c3ccccc23)cc1S(=O)(=O)N(C)C`, the “activity change, negative = inhibition” value is inactive: -13.1%.

`CCN(C(=O)CN1C(=O)COc2ccc(S(=O)(=O)N3CCOCC3)cc21)c1ccc(OC)cc1`: the “activity change, negative = inhibition” value is inactive: -5.26%.

With `CC(C)(C)CC(=O)NCC(c1ccc2c(c1)OCO2)N1CCOCC1` (configuration not stated), the “activity change, negative = inhibition” value was inactive: -15.4%.

As for `O=C(Nc1cccc(F)c1)c1ccc2c(c1)N(Cc1ccccc1)C(=O)c1ccccc1S2(=O)=O`, the “activity change, negative = inhibition” value is inactive: -16.5%.

On to `O=C(COc1ccc(Cl)cc1)OCc1cc(=O)n2nc(C3CC3)sc2n1`, for which the “activity change, negative = inhibition” value was inactive: -10.2%.

Regarding `COC(=O)c1ccccc1NC(=O)C1CCN(C(=O)N2CC(C)Oc3ccccc32)CC1` (configuration not stated), the “activity change, negative = inhibition” value is inactive: -19.4%.

For `COc1ccc(C(=O)NCC(c2ccc(N(C)C)cc2)N2CCc3ccccc32)cc1OC` (configuration not stated), the “activity change, negative = inhibition” value is inactive: -14.9%.

Consider `N[C@@H](C(=O)N[C@@H]1C(=O)N2C(C(=O)O)=C(Cl)CS[C@H]12)c1ccccc1`, for which the activity change, negative = inhibition entry was “inactive”.

Take `COc1ccc(-c2nc3ccccc3s2)cc1NC(=O)c1ccc(F)cc1`: the “activity change, negative = inhibition” value is inactive: 11.5%.

Take `CN1[C@@H]2CC[C@H]1CC(NC(=O)n1c(=O)[nH]c3ccccc31)C2` (some centres not stated): the “activity change, negative = inhibition” value was inactive: 3.34%.

Regarding `Cc1ccc(OCC(=O)Nc2ccccc2OCc2cc(=O)n3ccccc3n2)cc1C`, the “activity change, negative = inhibition” value was inactive: 0.0621%.

`Cc1cccc(NC(c2ccccc2F)c2ccc3ccc(C)nc3c2O)n1` (configuration not stated): the “activity change, negative = inhibition” value was inactive: 3.12%.

As to `CCOC(=O)Cn1c(=O)oc2cc(S(=O)(=O)N3CCN(c4cccc(C)c4)C(C)C3)ccc21` (configuration not stated), the “activity change, negative = inhibition” value was inactive: -25.5%.

`CC(=O)Nc1ccc2nc3c(=O)n(C)c(=O)n(C)c3nc2c1C`: the “activity change, negative = inhibition” value is inactive: 0.302%.

`Cc1nc2cccnc2n1-c1cccc(C(=O)NCCN(C)C)c1`: the “activity change, negative = inhibition” value was inactive: -5.81%.

As for `COc1ccc(-c2cc(C(F)F)nn2-c2ccc(S(N)(=O)=O)cc2)cc1F`, the “activity change, negative = inhibition” value was inactive: -4.23%.
